# Measurements from publication PMC4336329 (PLoS ONE, 2015).
# The campaign covered roughly 310,000 compounds. About 2,200 (0.71%) showed an effect of 50% or more. Effects have a minus sign here. This is one part of the list.
# Molecular target: human ether-à-go-go-related gene (hERG) potassium channel (human, UniProt Q12809)
# Assay: primary screen, population patch clamp on CHO cells stably expressing hERG
# Chain of human ether-à-go-go-related gene (hERG) potassium channel (Q12809 whole entry, looked up): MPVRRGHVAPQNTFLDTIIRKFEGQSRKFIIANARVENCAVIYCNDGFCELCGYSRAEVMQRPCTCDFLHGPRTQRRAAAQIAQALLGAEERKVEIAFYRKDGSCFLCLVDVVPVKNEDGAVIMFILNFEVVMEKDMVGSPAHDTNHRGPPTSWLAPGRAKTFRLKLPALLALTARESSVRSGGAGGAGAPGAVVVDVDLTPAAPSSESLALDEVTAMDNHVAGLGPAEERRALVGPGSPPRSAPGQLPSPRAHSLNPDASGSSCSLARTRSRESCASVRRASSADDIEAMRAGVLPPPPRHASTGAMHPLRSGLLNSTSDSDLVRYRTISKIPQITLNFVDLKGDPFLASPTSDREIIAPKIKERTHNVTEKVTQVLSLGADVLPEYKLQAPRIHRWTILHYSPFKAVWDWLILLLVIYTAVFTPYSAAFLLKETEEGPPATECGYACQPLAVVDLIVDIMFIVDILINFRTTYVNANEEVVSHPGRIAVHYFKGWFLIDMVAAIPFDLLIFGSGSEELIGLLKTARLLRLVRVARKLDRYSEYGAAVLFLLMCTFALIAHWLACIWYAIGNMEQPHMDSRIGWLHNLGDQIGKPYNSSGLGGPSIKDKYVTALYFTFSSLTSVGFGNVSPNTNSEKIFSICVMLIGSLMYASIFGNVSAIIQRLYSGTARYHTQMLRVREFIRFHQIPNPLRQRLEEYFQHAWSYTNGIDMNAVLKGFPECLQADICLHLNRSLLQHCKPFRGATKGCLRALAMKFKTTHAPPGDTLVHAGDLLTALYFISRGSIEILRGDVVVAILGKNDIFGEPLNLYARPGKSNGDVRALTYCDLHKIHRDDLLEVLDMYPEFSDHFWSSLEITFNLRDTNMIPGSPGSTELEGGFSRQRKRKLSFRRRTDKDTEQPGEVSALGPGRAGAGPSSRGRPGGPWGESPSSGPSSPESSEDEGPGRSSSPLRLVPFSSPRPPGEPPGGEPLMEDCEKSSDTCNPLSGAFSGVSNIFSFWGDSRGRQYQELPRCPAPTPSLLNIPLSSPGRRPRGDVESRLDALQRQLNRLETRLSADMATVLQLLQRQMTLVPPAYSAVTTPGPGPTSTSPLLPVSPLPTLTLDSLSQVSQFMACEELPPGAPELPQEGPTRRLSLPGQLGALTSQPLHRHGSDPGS
row,SMILES,"hERG current change (%, negative = inhibition) at 1uM [%]"
1,COc1cccc2cc(C(C)N(CCCN3CCOCC3)C(=S)Nc3cccc(C)c3)oc12 (stereo not drawn),10.9
2,CN(CCO)c1ccc(-c2n[nH]c(=O)c3ccccc23)cc1[N+](=O)[O-],2.5
3,COc1ccc(N2C(=O)C3CCCN3C2c2cccc(F)c2)cc1Cl (stereo not drawn),0.382
4,N#C/C(=C\c1cc2ccccc2nc1N1CCOCC1)C(=O)Nc1ccc(N2CCOCC2)cc1,5.8
5,Cc1cc2ccccc2c(=O)n1CC(=O)N1CCN(c2cccc(Cl)c2)CC1,1.89
6,C/C(NC(=O)c1cccs1)=C1\C(=O)C[C@@H]2[C@H]1C2(C)C,7.2
7,CC(C)OCCCNC(=O)c1c(N)n(CC2CCCO2)c2nc3ccccc3nc12 (stereo not drawn),6.34
8,COC(=O)c1ccccc1Oc1ccc(NC(=O)C(C)(C)CCl)cc1,-12.3
9,Cc1cc(=O)[nH]c(N2CCc3ccccc3C2)n1,3.65
10,Cc1cccc(NC(=O)c2c(F)c(F)c(F)c(F)c2F)c1,-0.482
11,Cc1nn(Cc2ccc(Cl)cc2Cl)c(C)c1NC(=O)NC12CC3CC(CC(C3)C1)C2,12.8
12,Cn1nc(-c2ccc(C(=O)Nc3ccc(F)cc3)cc2)c2ccccc2c1=O,1.3
13,COc1ccc(/C=N/N=C2\SC(CC(=O)O)C(=O)N2c2ccccc2)c(OC)c1 (stereo not drawn),-3.43
14,CCC(C)[C@H](N)c1cn([C@@H](Cc2cc3ccccc3[nH]2)C(=O)N2CCNCC2)nn1.Cl (stereo partly drawn),12.3
15,CCOC(=O)CSC1=C(C#N)C(=O)NC(c2ccc(OC)cc2)S1 (stereo not drawn),16.4
16,CN(CC(=O)NC(=O)NC1CCCCC1)Cc1ccccc1,7.61
17,Cc1ccc(-n2c(SCC(=O)Nc3ccc4c(c3)OCO4)nnc2-c2ccccn2)cc1,8
18,O=C(Nc1cccc(S(=O)(=O)N2CCCCC2)c1)c1ccc([N+](=O)[O-])o1,3.44
19,O=C(CCC(=O)c1cccs1)NCc1ccccc1,12.7
20,CCn1c(N2CCN(C(=S)NCC(C)C)CC2)nc2ccccc21,-13.8
21,COc1cc(SC)ccc1C(=O)Nc1ccccn1,3.02
22,O=C(CCCSc1nc2ccccc2[nH]1)NC(c1ccccc1)c1ccccc1,-8.62
23,CC(C)n1ncc2c(C(=O)Nc3ccc(S(N)(=O)=O)cc3)cc(C3CC3)nc21,5.76
24,NC(=O)N/N=C/c1c(Sc2nnnn2-c2ccccc2)nc2ccccn2c1=O,3.37
